# From PubChem BioAssay AID887 (National Center for Advancing Translational Sciences (NCATS), 2007)
# Out of some 74,000 compounds screened, about 1,100 (1.5%) were called active. The inconclusive results got no clear call from the source; some entries with a clear call stand among them for comparison. Calls follow the shape of the dose curve; as a rule, active = well fitted inhibition curve with a large enough effect; inconclusive = small, poorly fitted or top-dose-only effect; inactive = no such curve, though single readings can be large or run the other way. Where the call is inconclusive, the potency comes from a doubtful curve fit.
# Target: Polyunsaturated fatty acid lipoxygenase ALOX15 (Homo sapiens) (UniProt P16050)
# Test: qHTS Assay for Inhibitors of 15-hLO (15-human lipoxygenase); also: nearly all actives have a fitted effect of over 55% in size
# Conditions: purified 15hLO-1, xylenol orange hydroperoxide absorbance; activity change, negative = inhibition: at 57.1 µM (top of the series) unless noted
# Method in brief: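 Compounds were preincubated 15 min at room temperature with 40 nM purified human enzyme (25 mM Hepes pH 7.5, 0.01% Triton X-100); 50 uM arachidonic acid reacted 6 min. Fe-xylenol orange detection, 30 min, absorbance ratio 573/405 nm.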
# % is scaled to controls: 0 for no effect and ±100 for the full control effect; potency is read from the fitted curve at half-maximal effect; tags tell the direction and shape of the fitted curve.
# Chain of UniProt P16050 (P16050 whole entry, looked up): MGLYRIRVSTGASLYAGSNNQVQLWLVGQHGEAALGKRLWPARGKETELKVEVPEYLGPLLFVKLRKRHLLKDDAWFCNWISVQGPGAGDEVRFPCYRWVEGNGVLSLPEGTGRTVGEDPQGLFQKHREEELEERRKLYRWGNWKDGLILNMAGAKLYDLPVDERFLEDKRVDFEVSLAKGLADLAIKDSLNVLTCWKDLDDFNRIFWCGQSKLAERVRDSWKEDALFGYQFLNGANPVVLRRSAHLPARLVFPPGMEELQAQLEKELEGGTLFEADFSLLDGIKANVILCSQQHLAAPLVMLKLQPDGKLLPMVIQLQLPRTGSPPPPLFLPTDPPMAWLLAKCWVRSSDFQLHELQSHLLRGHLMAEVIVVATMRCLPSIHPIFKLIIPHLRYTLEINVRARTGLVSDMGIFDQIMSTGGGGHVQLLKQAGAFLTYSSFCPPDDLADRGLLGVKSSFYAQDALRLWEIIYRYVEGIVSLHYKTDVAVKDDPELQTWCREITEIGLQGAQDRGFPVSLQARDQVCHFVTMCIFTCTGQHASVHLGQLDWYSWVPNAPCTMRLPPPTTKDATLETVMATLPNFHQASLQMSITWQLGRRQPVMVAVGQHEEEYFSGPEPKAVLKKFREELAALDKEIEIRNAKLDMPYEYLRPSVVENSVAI
Structure (SMILES),Potency,"activity change, negative = inhibition"
O=C(c1ccccc1)c1ccc(N2CCOCC2)c(F)c1,active: 31.6 µM,
NCCNCCNCCN,,inactive: 45.5%
COC(=O)c1[nH]c2cc(OC)ccc2c1N,"inconclusive: 15.8 µM [inhibitor, partial curve]",
N#CC1=C(N)SC(N)=C(C#N)C1C1CC=CCC1 (stereo unspecified),"inconclusive: 15.8 µM [inhibitor, partial curve]",
O=C(Nc1ccc2c(c1)OCO2)C1CCCN(c2nc3ccccc3s2)C1 (stereo unspecified),"inconclusive: 20 µM [inhibitor, partial curve]",
O=C(NC1CCCC1)c1ccc2nc(-c3ccco3)c(-c3ccco3)nc2c1,active: 10 µM,
CCN(CC)CCn1c(-c2ccccc2)nc2c(NC3CCCCC3)nc(C)nc21,"inconclusive: 39.8 µM [inhibitor, single point]",
Cc1cc(Cl)ccc1OCCCC(=O)NO,"inconclusive: 10 µM [inhibitor, partial curve]",
COc1ccc(N2CCN(C(=O)C(C)(C)Oc3ccc(Cl)cc3)CC2)cc1,"inconclusive: 12.6 µM [inhibitor, partial curve]",
C[C@H](Oc1ccc(Oc2cnc3ccc(Cl)cc3n2)cc1)C(=O)O,"inconclusive: 31.6 µM [inhibitor, single point]",inactive: 26.5% [at 11.4 µM]
Cc1nc(N2CCN(C(=O)c3ccco3)CC2)c2c3c(sc2n1)CCC3,"inconclusive: 31.6 µM [inhibitor, single point]",
CC(C)Cn1nc(NS(=O)(=O)c2ccccc2)c2cc3ccccc3nc21,,inactive: -3.27%
CN1CCN(c2ncc3nc(-c4cc(F)cc(F)c4)c(=O)n(-c4ccccc4)c3n2)CC1,"inconclusive: 39.8 µM [inhibitor, single point]",
COc1cccc(-c2cnc(NCc3cc(Cl)ccc3O)n2C)c1,active: 31.6 µM,
Nc1ccc(C(=O)O)cc1,inactive,
COc1ccc(-c2noc(-c3ccccc3Cl)n2)cc1OC,,inactive: -2.29%
CCOC(=O)c1cnn(-c2sc(C(=O)OCC)c(C)c2C(=O)OCC)c1N,"inconclusive: 31.6 µM [inhibitor, single point]",
Cc1ccc(C)c(OCCCC(=O)Nc2ccc(N3CCOCC3)cc2)c1,"inconclusive: 31.6 µM [inhibitor, single point]",
CC(C)c1ccc2c(c1)CC[C@H]1[C@](C)(CN)CCC[C@]21C,"inconclusive: 39.8 µM [inhibitor, single point]",
O=C(Nc1c(F)cc(F)cc1Br)c1cc(-c2ccc(O)cc2)on1,"inconclusive: 25.1 µM [inhibitor, partial curve]",
CC1=C(C#N)C(=O)NC(C)(C)C1,"inconclusive: 7.94 µM [inhibitor, single point]",
O=C(/C=C/c1ccc2c(c1)OCO2)c1cccs1,,inactive: -50.6% [at 25.6 µM]
Nc1nc(SCC(=O)c2ccc(Oc3ccccc3)cc2)n[nH]1,"inconclusive: 3.16 µM [inhibitor, full curve, poor fit]",
Cc1ccc(Nc2nnns2)cc1C,"inconclusive: 10 µM [inhibitor, partial curve]",
Nc1c(C(=O)N2CCCCC2)sc(=S)n1-c1ccccc1,active: 10 µM,

Structure (SMILES),Potency,"activity change, negative = inhibition"
Oc1cc2c(cc1O)CN(C(=S)NCCc1ccc(Cl)cc1)CCC2,"inconclusive: 2.51 µM [inhibitor, full curve]",
CCOC(=O)C1CCN(C(=O)Nc2ccc3nc(-c4ccco4)c(-c4ccco4)nc3c2)CC1,active: 5.01 µM,
COC(=O)N/N=C/C1=C[N+](=O)c2ccccc2[N+]1=O,,inactive: 2.9%
COc1ccccc1NC(=O)N(Cc1ccco1)Cc1cc2cc(C)cc(C)c2[nH]c1=O,active: 10 µM,
Cc1ccc(N=Cc2cccc(O)c2O)c(C)c1,active: 6.31 µM,
COc1cc(NC(=O)c2cc(C(C)C)on2)cc(OC)c1OC,,inactive: -1.36%
CCn1c(SCC(=O)c2ccc(Cl)cc2)nnc1-c1ccoc1C,,inactive: -18.4%
CCOc1ccccc1Nc1nc2ccccc2n2cnnc12,,inactive: 13.2%
CN1CCN(c2cc(-c3ccoc3)ncn2)CC1,"inconclusive: 25.1 µM [inhibitor, single point]",
COc1ccc2c(c1)c(CC(=O)N1CCOCC1)c(C)n2C(=O)c1ccc(Cl)cc1,,inactive: -15.6% [at 25.6 µM]
O=c1c2cn[nH]c2nc(SCc2ccc3c(c2)OCCO3)n1-c1ccccc1,"inconclusive: 20 µM [inhibitor, partial curve]",
Cc1ccc(-c2ccc(CCC(=O)O)n2C(C)C)cc1,"inconclusive: 12.6 µM [inhibitor, partial curve]",
CCOc1ccccc1C1C(C#N)=C(N)Oc2cc(C)n(Cc3ccccn3)c(=O)c21 (stereo unspecified),"inconclusive: 25.1 µM [inhibitor, single point]",
Cc1ccc(CNC(=O)C2c3ccccc3C(=O)N(C)C2c2c[nH]c3ccccc23)o1 (stereo unspecified),"inconclusive: 31.6 µM [inhibitor, single point]",
COc1cc(C2NC(=O)NC(c3ccccc3)=C2C(C)=O)ccc1OCC(=O)O (stereo unspecified),active: 7.94 µM,
N#CC(C(=O)NC1CC1)c1nc2ccccc2nc1N1CCCC1 (stereo unspecified),"inconclusive: 31.6 µM [inhibitor, single point]",
COc1cc(Cn2c(N)c(C#N)c3nc4ccccc4nc32)cc(OC)c1,"inconclusive: 31.6 µM [inhibitor, single point]",
COCCNC(=O)C(c1ccc(C)o1)N(Cc1cccs1)C(=O)c1snc(C(N)=O)c1N (stereo unspecified),"inconclusive: 0.0251 µM [inhibitor, partial curve, poor fit]",
Fc1ccc(Nc2ncncc2-c2ccccc2C(F)(F)F)cc1,"inconclusive: 0.794 µM [inhibitor, partial curve, poor fit]",
CNCCCC12CCC(c3ccccc31)c1ccccc12,,inconclusive: -55.1% [inhibitor] [at 25.6 µM]
Cc1cc(C)c2c(c1)-c1c(ssc1=S)C(C)(C)N2C(=O)CSc1nncn1C,"inconclusive: 3.98 µM [inhibitor, partial curve]",
NCCOC[C@H](N)C(=O)O,,inactive: -6.07% [at 11.4 µM]
Cc1cccc(CNc2ncncc2-c2cccc(NS(C)(=O)=O)c2)c1,"inconclusive: 25.1 µM [inhibitor, single point]",
Cn1c(/N=C/c2c(O)ccc3ccccc23)nc2ccccc21,active: 3.98 µM,
Nc1nc(-c2ccccc2)nc(-c2ccccc2O)n1,"inconclusive: 12.6 µM [inhibitor, partial curve]",

Structure (SMILES),Potency,"activity change, negative = inhibition"
O=C(Nc1ccc2c(c1)OCO2)C1CCN(S(=O)(=O)c2cccs2)CC1,,inactive: -3.13%
N#Cc1c(NCCO)nc(NCc2ccccc2)c2c1CCN(Cc1ccccc1)C2,"inconclusive: 12.6 µM [inhibitor, partial curve]",
CC(CC1C(C#N)=C(N)SC(N)=C1C#N)c1ccccc1 (stereo unspecified),active: 15.8 µM,
O=C(Nc1cccc(F)c1)N1CCC2(CC1)CCN(C(=O)c1csnn1)CC2,,inactive: 10.2%
CCN(CC)C(=O)C(C)N(C#N)c1nc(NC(C)C)nc(NC(C)C)n1 (stereo unspecified),,inactive: -4.55%
CC(C)OC(=O)c1c(N)sc2c1CCCC2,"inconclusive: 25.1 µM [inhibitor, single point]",
COc1ccc(-c2n[nH]c(=S)n2C2CCCCC2)cc1,"inconclusive: 25.1 µM [inhibitor, single point]",
NC(N)=NC(N)=Nc1c(F)c(F)c(F)c(F)c1F,,inactive: 1.41% [at 11.4 µM]
COc1ccc(O[C@H]2C=C[C@@H](c3ccccc3)O[C@H]2COC(=O)N2CCCCC2)cc1,,inactive: 1.32% [at 11.4 µM]
CCOc1cc(C(=O)O)cc(Cl)c1OCC#N,"inconclusive: 3.98 µM [inhibitor, single point]",
Cc1ccc2[nH]c3nc(SCCN4CCOCC4)nnc3c2c1,active: 2.51 µM,
CCCn1c(SCC(=O)Nc2ccccc2C(=O)OC)nc2c1c(=O)n(C)c(=O)n2C,,inactive: 5.86%
c1ccc(-c2csc(N3CCN(c4ccccn4)CC3)n2)cc1,,inactive: -6.75%
CCCCNC(=O)OCC(CC)NC(=O)OC(C)C (stereo unspecified),"inconclusive: 10 µM [inhibitor, partial curve, poor fit]",
CN1CCc2c(sc3c2c(=O)n(-c2ccccc2)c2nnc(SCc4ccc(F)cc4)n32)C1,"inconclusive: 25.1 µM [inhibitor, single point]",
Nc1nonc1-c1nc2ccccc2n1CC(=O)NC1CCCC1,,inactive: -21.2%
FC(F)(F)c1ccccc1-c1nccc(NCCN2CCOCC2)n1,"inconclusive: 25.1 µM [inhibitor, single point]",
CCOC(=O)c1c(N)sc2c(O)c(Br)ccc12,"inconclusive: 12.6 µM [inhibitor, partial curve]",
COc1cccc(Nc2ncc3ncc(=O)n(CCc4ccccc4)c3n2)c1,"inconclusive: 25.1 µM [inhibitor, single point]",
CC1(C)N([O-])C(c2ccccc2)=C[N+](=O)C1(C)C,"inconclusive: 39.8 µM [inhibitor, single point]",
COc1ccc2[nH]cc(CCNc3nc(-c4ccc(C(=O)N(C)C)cc4)nc4ccccc34)c2c1,"inconclusive: 25.1 µM [inhibitor, single point]",
Clc1cccc(-c2nnc(-c3ccccc3)o2)c1,,inactive: -5.96%
Cc1ccc(C2NC(=O)c3c(sc4c3CCN(C)C4)N2)o1 (stereo unspecified),active: 3.16 µM,
CC(=O)c1ccc2c(c1)Nc1ccccc1S2,"inconclusive: 12.6 µM [inhibitor, partial curve]",
CC(=O)NCCNc1nc(-c2ccc(N(C)C)cc2)nc2ccccc12,"inconclusive: 20 µM [inhibitor, single point]",
